Out of some 410,000 compounds screened, about 530 (0.13%) were called active. Inconclusive results, whose numbers are uncertain, are shown with a selection of clear calls. Calls come from the whole dose curve; as a rule, active = well fitted inhibition curve with a large enough effect; inconclusive = small, poorly fitted or top-dose-only effect, or another doubt; inactive = no such curve, though single readings can be large or run the other way. Potencies of inconclusive entries are doubtful fits and often do not repeat.
Assay: qHTS of GLP-1 Receptor Inverse Agonists: Cytotox Screen
Settings: HEK293 cAMP-luciferase reporter cells, luminescence, 24 h; series mostly up to 38.3 µM
Procedure, shortened: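 Luminescence readout: signal drop marks cytotoxicity. Plated cells grew 12 h at 37 °C, 5% CO2, received 23 nL compound for 24 h, then got luciferase reagent, read after 12 min at RT.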
In the case of `COc1ccc(OCCSc2ncccn2)cc1`, the Potency is reported as “inactive”.
In the case of `Cc1cc(-c2ccc(S(=O)(=O)Nc3ccccc3F)s2)on1`, the Potency is reported as inconclusive: 10 µM [inhibitor, single point].
For `O=S(=O)(c1cccs1)N1CCN(c2ccnc3cc(Cl)ccc23)CC1`, the Potency was inconclusive: 7.08 µM [inhibitor, partial curve, poor fit].
In the case of `CCCOc1ccc(C(=O)Nc2ccc(NC(=O)c3ccccc3)c(Br)c2)cc1`, the Potency is reported as “inactive”.
With `CCN(CC(=O)Nc1c(F)cccc1F)C(=O)c1nc2nc(C)cc(C)n2n1` the Potency was “inactive”.
In the case of `CN1CCN(C(=S)NC(=O)/C=C/c2cccc3ccccc23)CC1`, the Potency is reported as “inactive”.
For `CC(=O)Nc1ccc(NC(=O)CSc2nc3ccccc3nc2N2CCCCC2)cc1`, the Potency was inconclusive: 12.6 µM [inhibitor, single point].
In the case of `CCOc1ccc(-c2cc(C(=O)NCCOC)[nH]n2)c(C)c1`, the Potency is reported as “inactive”.
In the case of `CC(=O)Nc1ccc(NC2=C(Cl)C(=O)c3ccccc3C2=O)cc1`, the Potency is reported as inconclusive: 6.31 µM [inhibitor, partial curve, poor fit].
With `Cc1nnc(N2C(=O)c3cccc4c([N+](=O)[O-])ccc(c34)C2=O)s1` the Potency was “inactive”.
In the case of `O=C1/C(=C/c2cccnc2)SC(=S)N1CC1CCCO1` (stereo unspecified), the Potency is reported as “inactive”.
With `CCOc1ccc(C2CC(=O)Nc3cc4c(cc32)OCO4)cc1OC` (stereo unspecified) the Potency was inconclusive: 31.6 µM [inhibitor, single point].
In the case of `Cc1ccn(C(=O)c2cc3c(C)nn(-c4ccccc4)c3s2)n1`, the Potency is reported as “inactive”.
In the case of `Cc1ccc2nc(N(CCCN(C)C)C(=O)c3ccc4c(c3)CCCC4)sc2c1`, the Potency is reported as inconclusive: 12.6 µM [inhibitor, single point].
With `Nc1sc(Cc2ccccc2)cc1C(=O)c1c(-c2ccccc2)[nH]c2ccccc12` the Potency was inconclusive: 15.8 µM [inhibitor, partial curve, poor fit].
In the case of `Cc1cccc(NC(=S)NNC(=O)c2ccccc2Br)c1`, the Potency is reported as “inactive”.
For `Cc1ccc2nc(NC(=O)c3cccc(-c4cc5ccccc5oc4=O)c3)sc2c1`, the Potency was inconclusive: 28.2 µM [inhibitor, single point].
For `O=S(=O)(c1ccc(F)cc1F)N1CCN(CCO)CC1`, the Potency was inconclusive: 1 µM [inhibitor, full curve, poor fit].
With `S=C1SCN(Cc2cccnc2)CN1Cc1cccnc1` the Potency was inconclusive: 14.1 µM [inhibitor, partial curve, poor fit].
With `COc1ccc(-n2c(N)c(C(=O)Nc3c(C)n(C)n(-c4ccccc4)c3=O)c3nc4ccccc4nc32)cc1` the Potency was inconclusive: 0.501 µM [inhibitor, full curve, poor fit].
With `CCN(CC(=O)Nc1ccccc1OC)C(=O)c1ccc2[nH]c3c(c2c1)CC(C)CC3` (stereo unspecified) the Potency was “inactive”.
For `O=C(CSc1nc(-c2cccc(F)c2)[nH]c1-c1ccccc1)Nc1ccc2c(c1)OCCO2`, the Potency was inconclusive: 4.47 µM [inhibitor, partial curve, poor fit].
For `COc1cccc(C(=O)Cn2c(N3CCOCC3)nc3c2c(=O)n(C)c(=O)n3C)c1`, the Potency was “inactive”.
With `Cc1ccc(/C=C/c2onc(C)c2S(=O)(=O)N2CCC(C(=O)N3CCN(c4ccccc4F)CC3)CC2)cc1` the Potency was “inactive”.
With `COc1ccc(CCNC(=O)c2cc3sccc3n2Cc2ccc(Cl)cc2)cc1OC` the Potency was “inactive”.
With `CC(C)CN(C(=O)COc1ccc(Br)cc1C=O)C1CCS(=O)(=O)C1` (stereo unspecified) the Potency was inconclusive: 28.2 µM [inhibitor, single point].
With `O=C(NCCc1ccccc1Cl)c1ccc2c(=O)n(-c3ccccc3)c(=O)[nH]c2c1` the Potency was “inactive”.
With `Cc1ccc(-c2cc(NC(=O)CCl)n(-c3ccccc3)n2)cc1` the Potency was inconclusive: 14.1 µM [inhibitor, single point].
With `CN1CCN(c2ccccc2NC(=O)c2ccc(-c3cccc(Cl)c3)o2)CC1` the Potency was inconclusive: 28.2 µM [inhibitor, single point].
With `CCN(C(=O)Cn1cnc2onc(-c3ccc(F)cc3)c2c1=O)c1ccc(OC)cc1` the Potency was “inactive”.
For `O=C(CCSc1ccc(Cl)cc1)c1cccs1`, the Potency was inconclusive: 31.6 µM [inhibitor, single point].
For `CC(=O)Oc1c(Sc2ccccc2[N+](=O)[O-])c(C)nn1C(C)(C)C`, the Potency was “inactive”.
In the case of `COc1cc(NC(=O)c2ccc3c(=O)n(Cc4ccco4)c(=S)[nH]c3c2)cc(OC)c1OC`, the Potency is reported as inconclusive: 31.6 µM [inhibitor, single point].
In the case of `Cc1ccc2nc(-c3ccccn3)c(NC3CCCC3)n2c1`, the Potency is reported as inconclusive: 8.91 µM [inhibitor, partial curve].
With `COc1cc(OC)c2c(-c3ccccc3)cc(=O)oc2c1C(CCN1CCCC(C)C1)c1ccc2c(c1)OCO2` (stereo unspecified) the Potency was inconclusive: 28.2 µM [inhibitor, single point].
With `Nc1c2c(nc3ccccc13)CCC2` the Potency was inconclusive: 12.6 µM [inhibitor, single point].
In the case of `CCN1CCN(c2cc(C)c3cc(NC(=O)c4ccc5c(c4)OCO5)ccc3n2)CC1`, the Potency is reported as inconclusive: 17.8 µM [inhibitor, partial curve, poor fit].
For `Cc1cccc(N2C(=O)CSC23C(=O)N(CC(=O)NCc2ccccc2Cl)c2ccccc23)c1` (stereo unspecified), the Potency was “inactive”.
For `O=C(NC(=S)NC1CCCCCC1)c1cncc(Br)c1`, the Potency was inconclusive: 11.2 µM [inhibitor, single point].
For `CCN(c1ccccc1)S(=O)(=O)c1ccc(Cl)c(NC(=O)Nc2ccc(Cl)cc2C#N)c1`, the Potency was inconclusive: 28.2 µM [inhibitor, single point].
For `Cc1occc1C(=O)NC1CCCCCCC1`, the Potency was “inactive”.
In the case of `COc1cc2c(cc1OC)[C@H](C)N(C(=O)NCc1ccccc1)CC2`, the Potency is reported as inconclusive: 11.2 µM [inhibitor, single point].
For `Cc1cc2c(cc1C)N(Cc1ccccc1)C1=NCCCN12`, the Potency was inconclusive: 15.8 µM [inhibitor, single point].
In the case of `Cc1nc2c(-c3ccc(Cl)cc3)cnn2c(N)c1-c1ccc(F)cc1`, the Potency is reported as “inactive”.
For `Cc1ccc(/C=N/NC(=O)CN2CCN(S(=O)(=O)c3ccc(Br)cc3)CC2)s1`, the Potency was “inactive”.
In the case of `CCCOc1cccc(C2C(C(=O)c3ccc(C)o3)=C(O)C(=O)N2c2nc(C)c(C(C)=O)s2)c1` (stereo unspecified), the Potency is reported as “inactive”.

From PubChem BioAssay AID624418 (National Center for Advancing Translational Sciences (NCATS), 2012)
Potency is the fitted concentration of half-maximal effect.
